Measurements taken from paper PMC5062570 (Nature Communications, 2016).
Where “and” joins values, the source holds several entries; their conditions need not be identical. Equal entries are not always repeated.

Key:
[1] = biological target: T1, PF-7802-labelled proteins in ARPE-19 cells (Homo sapiens, UniProt P08195); conditions: for Median SILAC Ratio (Heavy/Light): SLC3A2 4F2 cell-surface antigen heavy chain (P08195)
T1 sequence (P08195 1-529): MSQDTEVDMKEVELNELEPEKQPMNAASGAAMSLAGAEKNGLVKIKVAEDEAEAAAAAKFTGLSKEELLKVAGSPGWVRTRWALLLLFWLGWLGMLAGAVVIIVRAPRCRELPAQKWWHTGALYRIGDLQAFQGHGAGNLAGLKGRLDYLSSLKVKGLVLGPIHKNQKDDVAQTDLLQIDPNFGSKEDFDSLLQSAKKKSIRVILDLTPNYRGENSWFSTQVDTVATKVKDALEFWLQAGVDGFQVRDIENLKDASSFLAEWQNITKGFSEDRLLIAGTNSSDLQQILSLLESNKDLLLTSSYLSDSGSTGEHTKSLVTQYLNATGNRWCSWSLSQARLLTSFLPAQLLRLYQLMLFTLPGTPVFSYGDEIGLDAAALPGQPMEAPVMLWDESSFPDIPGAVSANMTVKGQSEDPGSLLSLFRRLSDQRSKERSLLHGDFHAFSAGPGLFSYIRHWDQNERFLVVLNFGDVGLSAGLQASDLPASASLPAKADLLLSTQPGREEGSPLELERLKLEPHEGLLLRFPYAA

[2] = biological target: PF-7802-labelled proteins in ARPE-19 cells (Homo sapiens, UniProt P15880); conditions: protein RPS2 40S ribosomal protein S2, P15880
[3] = biological target: T2, PF-7802-labelled proteins in ARPE-19 cells (Homo sapiens, UniProt P26006); conditions: for Median SILAC Ratio (Heavy/Light): protein ITGA3 Integrin alpha-3 (P26006), one column per replicate
T2 sequence (P26006 33-1051): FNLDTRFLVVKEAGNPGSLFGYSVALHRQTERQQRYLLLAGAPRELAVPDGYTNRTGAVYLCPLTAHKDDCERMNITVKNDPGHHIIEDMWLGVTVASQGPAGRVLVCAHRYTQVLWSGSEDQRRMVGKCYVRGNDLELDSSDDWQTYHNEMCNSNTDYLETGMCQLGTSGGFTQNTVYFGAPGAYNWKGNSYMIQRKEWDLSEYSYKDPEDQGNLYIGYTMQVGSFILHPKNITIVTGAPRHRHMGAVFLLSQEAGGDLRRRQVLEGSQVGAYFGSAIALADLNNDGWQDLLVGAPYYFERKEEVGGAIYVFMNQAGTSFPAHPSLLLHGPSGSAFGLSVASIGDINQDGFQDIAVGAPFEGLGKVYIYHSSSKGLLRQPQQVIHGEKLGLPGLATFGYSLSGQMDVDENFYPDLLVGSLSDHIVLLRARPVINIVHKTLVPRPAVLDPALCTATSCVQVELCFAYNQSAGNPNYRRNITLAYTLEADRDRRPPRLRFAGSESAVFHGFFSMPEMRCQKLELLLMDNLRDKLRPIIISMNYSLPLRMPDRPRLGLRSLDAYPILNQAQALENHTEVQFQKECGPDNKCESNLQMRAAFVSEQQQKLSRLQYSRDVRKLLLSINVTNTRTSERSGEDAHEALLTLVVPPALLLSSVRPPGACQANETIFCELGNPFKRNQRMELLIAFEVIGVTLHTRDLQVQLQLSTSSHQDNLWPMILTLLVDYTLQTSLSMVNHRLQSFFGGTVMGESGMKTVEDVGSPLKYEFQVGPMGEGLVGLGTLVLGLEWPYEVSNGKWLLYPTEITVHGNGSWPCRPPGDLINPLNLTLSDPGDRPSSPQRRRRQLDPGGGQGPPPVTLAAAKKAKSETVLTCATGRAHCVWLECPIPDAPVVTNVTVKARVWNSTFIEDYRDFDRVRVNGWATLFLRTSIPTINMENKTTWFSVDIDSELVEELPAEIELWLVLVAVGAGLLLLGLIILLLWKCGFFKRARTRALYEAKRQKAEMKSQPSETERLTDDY

[4] = biological target: T3, PF-7802-labelled proteins in ARPE-19 cells (Homo sapiens, UniProt P31943); conditions: for Median SILAC Ratio (Heavy/Light): protein HNRNPH1 Heterogeneous nuclear ribonucleoprotein H (P31943), one column per replicate
T3 sequence (P31943 1-449): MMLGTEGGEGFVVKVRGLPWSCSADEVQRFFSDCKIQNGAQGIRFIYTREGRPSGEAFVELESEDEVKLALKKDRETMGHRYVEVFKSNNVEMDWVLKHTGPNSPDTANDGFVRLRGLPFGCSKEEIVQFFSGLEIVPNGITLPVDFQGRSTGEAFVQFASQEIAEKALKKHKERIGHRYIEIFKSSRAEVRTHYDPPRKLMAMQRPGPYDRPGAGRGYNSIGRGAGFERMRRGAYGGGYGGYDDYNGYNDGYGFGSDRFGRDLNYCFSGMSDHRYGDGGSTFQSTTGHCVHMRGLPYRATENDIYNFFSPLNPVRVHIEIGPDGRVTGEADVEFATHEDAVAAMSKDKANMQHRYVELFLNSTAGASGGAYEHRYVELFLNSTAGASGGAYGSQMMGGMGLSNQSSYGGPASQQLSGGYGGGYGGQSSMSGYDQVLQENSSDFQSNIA

[5] = biological target: PF-7802-labelled proteins in ARPE-19 cells (Homo sapiens, UniProt P52907); conditions: protein CAPZA1 F-actin-capping protein subunit alpha-1 (P52907)
[6] = biological target: PF-7802-labelled proteins in ARPE-19 cells (Homo sapiens, UniProt P61224); conditions: protein RAP1B Ras-related protein Rap-1b, P61224
[7] = biological target: PF-7802-labelled proteins in ARPE-19 cells (Homo sapiens, UniProt Q9BUF5); conditions: TUBB6 Tubulin beta-6 chain (Q9BUF5)
[8] = biological target: PF-7802-labelled proteins in ARPE-19 cells (Homo sapiens, UniProt Q9P0K7); conditions: protein RAI14 Ankycorbin, Q9P0K7
Chain of UniProt Q9P0K7 (Q9P0K7 whole entry): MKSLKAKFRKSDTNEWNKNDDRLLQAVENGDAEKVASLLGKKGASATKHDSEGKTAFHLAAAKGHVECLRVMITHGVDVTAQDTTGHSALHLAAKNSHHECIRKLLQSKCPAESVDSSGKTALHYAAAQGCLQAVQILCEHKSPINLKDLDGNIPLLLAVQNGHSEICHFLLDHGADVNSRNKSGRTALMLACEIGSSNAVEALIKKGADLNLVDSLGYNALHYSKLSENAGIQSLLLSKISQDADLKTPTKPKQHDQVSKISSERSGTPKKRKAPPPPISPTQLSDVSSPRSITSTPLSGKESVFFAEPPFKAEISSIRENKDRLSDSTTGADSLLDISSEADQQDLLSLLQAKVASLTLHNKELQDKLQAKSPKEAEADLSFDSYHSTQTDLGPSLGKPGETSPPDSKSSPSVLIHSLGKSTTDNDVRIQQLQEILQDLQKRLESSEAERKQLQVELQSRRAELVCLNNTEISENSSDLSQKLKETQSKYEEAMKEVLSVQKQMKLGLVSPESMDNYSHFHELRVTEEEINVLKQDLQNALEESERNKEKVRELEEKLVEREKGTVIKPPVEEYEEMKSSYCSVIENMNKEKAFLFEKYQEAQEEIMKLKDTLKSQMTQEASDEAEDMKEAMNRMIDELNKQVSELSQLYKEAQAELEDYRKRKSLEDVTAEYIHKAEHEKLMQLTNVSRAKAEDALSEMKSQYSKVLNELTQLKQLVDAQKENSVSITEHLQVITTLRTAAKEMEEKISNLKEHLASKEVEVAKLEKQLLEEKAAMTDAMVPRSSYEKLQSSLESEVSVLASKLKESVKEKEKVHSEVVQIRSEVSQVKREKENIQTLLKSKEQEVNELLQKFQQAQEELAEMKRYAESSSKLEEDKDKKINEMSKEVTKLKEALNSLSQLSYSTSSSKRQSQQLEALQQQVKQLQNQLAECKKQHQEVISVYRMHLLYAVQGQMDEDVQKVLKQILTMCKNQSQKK

Chain of UniProt Q9BUF5 (Q9BUF5 whole entry): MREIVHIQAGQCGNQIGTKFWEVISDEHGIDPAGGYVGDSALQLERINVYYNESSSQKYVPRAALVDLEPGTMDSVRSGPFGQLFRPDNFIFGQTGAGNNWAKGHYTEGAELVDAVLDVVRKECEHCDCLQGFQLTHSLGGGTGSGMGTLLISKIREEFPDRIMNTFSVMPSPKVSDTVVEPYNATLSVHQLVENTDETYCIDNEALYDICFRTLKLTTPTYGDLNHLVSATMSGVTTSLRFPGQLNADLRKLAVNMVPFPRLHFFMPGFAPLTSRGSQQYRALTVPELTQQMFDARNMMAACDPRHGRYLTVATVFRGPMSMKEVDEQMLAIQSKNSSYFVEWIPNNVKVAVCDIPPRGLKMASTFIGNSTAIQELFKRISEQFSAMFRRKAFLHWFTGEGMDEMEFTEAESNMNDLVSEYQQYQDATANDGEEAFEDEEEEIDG
Chain of UniProt P61224 (P61224 whole entry): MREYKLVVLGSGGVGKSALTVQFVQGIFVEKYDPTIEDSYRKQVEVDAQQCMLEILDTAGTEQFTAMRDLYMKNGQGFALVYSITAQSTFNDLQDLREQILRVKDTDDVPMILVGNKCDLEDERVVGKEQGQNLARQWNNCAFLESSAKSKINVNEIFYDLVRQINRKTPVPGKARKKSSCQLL

SMILES | SILAC ratio (DMSO/CP-108671) ([1]; P08195 SLC3A2 4F2 cell-surface antigen heavy chain) | Median SILAC Ratio (Heavy/Light) [1] | Median SILAC Ratio (Heavy/Light) [2] | SILAC ratio (DMSO/CP-108671) ([3]; P26006 ITGA3 Integrin alpha-3) | Median SILAC Ratio (Heavy/Light) [3] | SILAC ratio (DMSO/CP-108671) ([4]; P31943 HNRNPH1 Heterogeneous nuclear ribonucleoprotein H) | Median SILAC Ratio (Heavy/Light) [4] | Median SILAC Ratio (Heavy/Light) [5] | Median SILAC Ratio (Heavy/Light) [6] | Median SILAC Ratio (Heavy/Light) [7] | Median SILAC Ratio (Heavy/Light) [8]
CNC1CCN(C(=O)C[C@@H](Cc2ccccc2)C(=O)N[C@@H](CSC)C(=O)N[C@@H](CC2CCCCC2)[C@@H](O)C(=O)OC(C)C)CC1 [CP-108671, reference compound] | 0.88 | 1.137 | 1.804 | 0.95 | 1.057 | 0.91 | 1.094 | 1.363 | 1.024 | 2.641 | 1.263
Cc1cc([C@H]2C[C@H]3[C@@H](C)SC(N)=N[C@@]3(c3ccc(F)cc3F)CO2)on1 [PF-9283] | – | 1.447 | 1.896 | – | 1.082 and 0.7141 | – | 1.267 and 0.8852 and 1.763 | 1.567 and 0.9317 | 1.132 | 1.696 and 1.68 and 1.723 | 1.413
